{"source": "PubChem BioAssay AID686978", "about": "(National Center for Advancing Translational Sciences (NCATS), 2013)", "note": "Screen size: about 420,000 compounds; about 64,000 (15%) were called active. Inconclusive results, whose numbers are uncertain, are shown with a selection of clear calls. Calls come from the whole dose curve; as a rule, active = well fitted inhibition curve with a large enough effect; inconclusive = small, poorly fitted or top-dose-only effect; inactive = flat fitted curve, though single readings scatter. Potencies of inconclusive entries are left out as doubtful fits. % is set by controls: 0 for no effect and ±100 for the full control effect; potency is the fitted concentration of half-maximal effect; tags give direction and shape of the fitted curve.", "data": [{"assay": "qHTS for Inhibitors of human tyrosyl-DNA phosphodiesterase 1 (TDP1): qHTS in cells in absence of CPT; note: nearly all actives have a fitted effect of over 55% in size", "conditions": "DT40 Tdp1-/- hTDP1 cells, no CPT, ATP luminescence, 48 h; activity change, negative = growth inhibition: at 46.2 µM (top of the series) unless noted", "outline": "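DT40 Tdp1-/-;hTDP1 cells, no CPT (DMSO vehicle only), 400 cells/well; compounds pin-transferred; ≥48 hr, 37 °C; CellTiter-Glo 30 min RT dark, luminescence read.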", "values": [{"compound": "Cn1c(SCc2ccc(C#N)cc2)nnc1-c1ccncc1", "activity change, negative = growth inhibition": "inactive: -4.43%"}, {"compound": "CC(=O)C1(O)CCC2C3CC(C)C4=CC(=O)C=CC4(C)C3(F)C(O)CC21C", "note": "(stereo not given)", "activity change, negative = growth inhibition": "inactive: -27.9%"}, {"compound": "COc1ccccc1CNC(=O)c1ccc2c(c1)N(Cc1cc(C)ccc1C)C(=O)c1ccccc1S2", "Potency": "active: 9.2 µM"}, {"compound": "COc1cc(Cl)c(C)cc1NC(=O)CN(C)Cc1cccc(OC)c1OC", "Potency": "inconclusive [inhibitor, single point]"}, {"compound": "Cc1cccc(-n2c(Cc3ccccc3)n[nH]c2=S)c1", "activity change, negative = growth inhibition": "inactive: -0.334%"}, {"compound": "CCCCNC(=O)c1cc2c(=O)n3cccc(C)c3nc2s1", "Potency": "inconclusive [inhibitor, partial curve]"}, {"compound": "CCC(CC)c1nnc(NC(=O)c2cccnc2SC)s1", "activity change, negative = growth inhibition": "inactive: -2.79%"}, {"compound": "COc1ccc(C(=O)OCC(=O)c2c[nH]c3ccccc23)c(OC)c1", "Potency": "inconclusive [inhibitor, single point]"}, {"compound": "CCOc1ccc(CCNC(=O)c2ccc(CS(=O)Cc3ccc(Cl)cc3)o2)cc1OCC", "note": "(stereo not given)", "Potency": "active: 14.6 µM"}, {"compound": "COc1ccc(CSc2nnc(Cc3sc(-c4ccccc4)nc3-c3ccccc3)o2)cc1", "Potency": "inconclusive [inhibitor, single point]"}, {"compound": "CCn1cc(C(=O)O)c(=O)c2cc(F)c(N3CCN(C(=S)NC(=O)c4cc(OC)cc(OC)c4)CC3)cc21", "Potency": "inconclusive [inhibitor, partial curve, poor fit]"}, {"compound": "COc1ccc(N(CC(=O)NCCSCc2ccccc2C)S(=O)(=O)c2ccccc2)cc1", "Potency": "active: 16.4 µM"}, {"compound": "CCOc1ccc(NC(=O)Cn2cc(C(=O)c3ccc(F)cc3)c(=O)c3cc4c(cc32)OCCO4)cc1", "activity change, negative = growth inhibition": "inactive: -1.67%"}, {"compound": "CC(C)C(c1nnnn1CCc1ccccc1)N1CCN(C(=O)c2ccco2)CC1", "note": "(stereo not given)", "activity change, negative = growth inhibition": "inactive: -16%"}, {"compound": "O=C(C1CCCO1)N1CCN(C(=S)Nc2ccc(Cl)c(Cl)c2)CC1", "note": "(stereo not given)", "Potency": "inconclusive [inhibitor, full curve]"}, {"compound": "CCOc1ccc(C(=O)N[C@H](C(=O)Nc2ccc(OC)c(S(=O)(=O)N3CCOCC3)c2)C(C)C)cc1", "activity change, negative = growth inhibition": "inconclusive: -33.7% [inhibitor]"}, {"compound": "COc1ccc(-c2cc(C(F)(F)F)n3nc(C(=O)O)c(Cl)c3n2)cc1OC", "activity change, negative = growth inhibition": "inactive: -10.3%"}, {"compound": "NC(=O)C1CCN(C(=O)CCC(=O)N2CCOc3ccc(Cl)cc32)CC1", "activity change, negative = growth inhibition": "inactive: 0.357%"}, {"compound": "O=C(NC1CCCCC1)C(CCc1ccccc1)N1CCc2ccccc2C1", "note": "(stereo not given)", "Potency": "active: 20.6 µM"}, {"compound": "CN(CC(=O)Nc1ccc(Cl)cc1)C(=O)CNC(=O)c1cccs1", "activity change, negative = growth inhibition": "inactive: -8.57%"}, {"compound": "CCCCCCCC(=O)N/N=C/c1cccnc1", "activity change, negative = growth inhibition": "inactive: -2.83%"}, {"compound": "COc1ccccc1Oc1ccc(S(=O)(=O)N2CCCC2)cc1", "activity change, negative = growth inhibition": "inconclusive: -33.4% [inhibitor]"}, {"compound": "COc1ccc(CN2CCCC(C(=O)c3ccc(SC)cc3)C2)cc1Cn1cccn1", "note": "(stereo not given)", "Potency": "inconclusive [inhibitor, single point]"}, {"compound": "CCc1nc(C)cc2c1sc1ccccc12", "Potency": "inconclusive [inhibitor, single point]"}, {"compound": "Cc1ccc(C(=O)Nc2ccc(Oc3cccc(C(F)(F)F)c3)nc2)cc1", "Potency": "inconclusive [inhibitor, partial curve]"}, {"compound": "CCc1c(C)nc2nc(SCc3ccccc3)[nH]n2c1=O", "Potency": "inconclusive [inhibitor, partial curve]"}, {"compound": "CCC(=O)Nc1cccc(C2=NN(c3ccccc3)C(c3ccc(OC)cc3)C2)c1", "note": "(stereo not given)", "activity change, negative = growth inhibition": "inconclusive: -32.3% [inhibitor]"}, {"compound": "CCN(CC)S(=O)(=O)N1CCC(C(=O)NCCC2=CCCCC2)CC1", "Potency": "inconclusive [inhibitor, single point]"}, {"compound": "CC(NC(=O)CN1CCN(C(=O)c2cccs2)CC1)c1ccc(F)cc1F", "note": "(stereo not given)", "activity change, negative = growth inhibition": "inactive: -14.1%"}, {"compound": "O=S1(=O)N[C@H](Cc2ccccc2)COc2cc(N3CCN(Cc4ccccc4F)CC3)ccc21", "Potency": "active: 16.4 µM"}, {"compound": "O=C(Cc1csc(Nc2nc(=S)[nH]c3ccccc23)n1)N1CCN(c2cccc(Cl)c2)CC1", "Potency": "active: 14.6 µM"}, {"compound": "COc1ccc(OC)c(NC(=O)c2nnn(CC(=O)Nc3ccc4c(c3)OCO4)c2N)c1", "Potency": "inconclusive [inhibitor, single point]"}, {"compound": "O=C(O)c1ccccc1-c1ccccc1C(=O)Nc1ccc(-c2nc3cc(Cl)ccc3o2)cc1", "Potency": "inconclusive [inhibitor, single point]"}, {"compound": "Cc1ccc(-n2ccnc(NCCc3ccc(S(N)(=O)=O)cc3)c2=O)c(C)c1", "Potency": "inconclusive [inhibitor, single point]"}, {"compound": "O=C1NC(=O)C(CC(=O)N(Cc2ccco2)C2(C(=O)NC3CCCCC3)CCCCC2)N1", "note": "(stereo not given)", "activity change, negative = growth inhibition": "inconclusive: -37.3% [inhibitor]"}, {"compound": "O=C(NCC1CCCO1)c1ccc(NC(=O)c2cccc([N+](=O)[O-])c2)cc1", "note": "(stereo not given)", "Potency": "inconclusive [inhibitor, partial curve]"}, {"compound": "COc1ccc2c(c1)CCC/C2=N\\OC(=O)c1ccccc1F", "activity change, negative = growth inhibition": "inactive: -24.6%"}, {"compound": "CN(Cc1ccccc1)C(=O)c1ccc(NC(=O)Cc2cccc(NC(=O)C3CCN(C(=O)C4CCCCC4)CC3)c2)cc1", "Potency": "inconclusive [inhibitor, single point]"}, {"compound": "O=C(NCc1ccco1)c1csc2c1CCCCC2", "Potency": "inconclusive [inhibitor, single point]"}, {"compound": "COc1ccccc1OCCNc1cc(N2CCCCC2)ccc1[N+](=O)[O-]", "Potency": "inconclusive [inhibitor, single point]"}, {"compound": "COc1ccc(NC(=O)Cn2cnc3ccc(S(=O)(=O)N4CCC(C)CC4)cc3c2=O)cc1Cl", "Potency": "active: 4.11 µM"}, {"compound": "Cc1cc(=O)n2nc(N3CCCC3C(=O)NCCCN3CCCCC3)sc2n1", "note": "(stereo not given)", "activity change, negative = growth inhibition": "inactive: 1.3%"}, {"compound": "O=C(NCCCN1CCOCC1)c1cccc(S(=O)(=O)N2CCc3ccccc3C2)c1", "Potency": "inconclusive [inhibitor, partial curve, poor fit]"}, {"compound": "COc1ccc2[nH]c3c(=O)n(CCCCC(=O)NCCN4CCCC4)c(=S)[nH]c3c2c1", "activity change, negative = growth inhibition": "inactive: 2.34%"}, {"compound": "C[C@@H]1CN([C@H](C)CO)S(=O)(=O)c2ccc(-c3cccc(C(=O)N(C)C)c3)cc2O[C@H]1CN(C)C(=O)Nc1ccc(F)cc1", "Potency": "inconclusive [inhibitor, single point]"}]}]}
